Among the data in the supplement of paper PMC4723716 are viability index values, retold here.

The structures appear in SMILES notation. ± gives the uncertainty stated by the source. Whole data set: some 9,900 compounds, median “viability index relative to DMSO control” near 1, cut for the lowest 2% near 0.85. The list shows a part of the results.

This test concerns Plasmodium falciparum NF54 stage V gametocytes. The test can be described thus: viability index relative to DMSO control (fraction); higher = less gametocyte killing. The note with it: 2.5 µM, incubation time: 72 h. Put shortly: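 P. falciparum NF54 stage V gametocytes in serum-free screening medium (0.75% gametocytemia, 1.25% hematocrit, 10 µl) were incubated with compound at 2.5 µM in 1,536-well plates for 72 hr at 37°C under low oxygen. Then 3 µl of 2.5 µM MitoTracker Red CMXRos plus 0.13% saponin was added for one to two hours. One field per well was imaged, 20–70 µm2 red particles were counted, and the viability index was the count divided by the plate mean of DMSO wells.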

Setting [1] is: library set: Broad Institute DOS.
The mark [2] stands for this setting: library set: Broad Institute Blood Stage.

Under setting [1], `CN1CCN(C(=O)C[C@@H]2C[C@@H]3c4cc(NS(C)(=O)=O)ccc4O[C@@H]3[C@H](CO)O2)CC1` showed a viability index of 1.084 ± 0.0097. For `COc1cccc(-c2ccccc2[C@H]2[C@@H](C#N)N(C(=O)Cc3ccccc3)[C@H]2CO)c1`, the viability index under setting [1] was 1.07 ± 0.14. As for `C[C@@H]1CN([C@@H](C)CO)C(=O)c2cc(NC(=O)C3CCCCC3)ccc2O[C@@H](C)CCCCO[C@H]1CN(C)C(=O)CCC(F)(F)F`, the viability index under setting [1] was determined as 1.07 ± 0.071. On the same count and under the same terms, as for `O=C([C@H]1[C@H](CO)[C@H]2Cn3c(cccc3=O)[C@H]2N1Cc1cocn1)N1CCC(Cc2ccccc2)CC1`, the figure is 1.05 ± 0.021. Still for that read-out and setting: the same measure for `COc1ccccc1-c1ccccc1[C@H]1[C@@H](CO)N(C(=O)CN(C)C)[C@H]1C#N`: 1.14 ± 0.12. Under setting [1], `C[C@H](NC(=O)C[C@H]1CC[C@H]2[C@@H](COc3ccc(NC(=O)C4CCOCC4)cc3C(=O)N2C)O1)c1ccccc1` returned a viability index of 1.14 ± 0.073. `CCc1cnc(N2[C@H](C#N)[C@H](c3ccccc3-c3ccccc3C)[C@H]2CO)s1` showed a viability index under setting [1] of 1.07 ± 0.055.

`CC(=O)N1CC2(C1)[C@H](c1ccccc1)[C@H](CO)N2C(=O)c1cnccn1`: the viability index under setting [1] worked out at 1.09 ± 0.023. Under setting [1], `CN1C(=O)c2cc(NC(=O)NCc3ccccc3)ccc2OC[C@H]2O[C@@H](CC(=O)NCC3CCCCC3)CC[C@@H]21` registered a viability index of 1.03 ± 0.015.

In the case of `O=C(Cc1ccncc1)Nc1ccc2c(c1)[C@@H]1C[C@@H](CC(=O)N3CCc4ccccc4C3)O[C@@H](CO)[C@@H]1O2`, the viability index under setting [1] stood at 1.08 ± 0.043. On to `CN1C(=O)c2cc(NC(=O)c3cnccn3)ccc2OC[C@@H]2O[C@@H](CC(=O)N[C@@H]3CCN(Cc4ccccc4)C3)CC[C@H]21`, for which, under setting [1], the viability index is 0.947 ± 0.15. Under setting [2], `O=C(c1ccc(F)cc1)N1CC(=O)N2[C@H](C1)[C@@H](c1ccc(-c3cccnc3)cc1)[C@@H]2CO` returned a viability index of 0.733 ± 0.11. With `CO[C@@H]1CC[C@H]2CCN(C)C(=O)CCCN(C)C(=O)c3cc(C#N)ccc3OC[C@@H]1O2`, the viability index under setting [1] amounted to 0.919 ± 0.02.

Turning to `CN(C)CC(=O)N1[C@@H](C#N)[C@H](c2ccc(C#CC3CCCCC3)cc2)[C@@H]1CO`, the viability index under setting [1] was 1.06 ± 0.021. For the compound `COc1ccc2c3c([C@@H](CO)N(Cc4ccc(Cl)cc4)C[C@]33CN(C3)C(=O)NC(C)C)n(C)c2c1`, under setting [1], the viability index was found to be 0.998 ± 0.079.

The compound `COc1cccc(CNC(=O)C[C@@H]2CC[C@H]3[C@@H](COc4ccc(NS(=O)(=O)c5ccccc5F)cc4C(=O)N3C)O2)c1` displayed a viability index under setting [1] of 0.979 ± 0.099. In the case of `CO[C@H]1CN(C)C(=O)c2cc(NC(=O)C3CCCCC3)ccc2OC[C@H](C)N(C(=O)c2ccccc2)C[C@H]1C`, the viability index under setting [1] stood at 1.04 ± 0.084. Still for that read-out and setting: the same measure for `COc1cccc(CN2C[C@@]3(C2)CN([C@H](CO)c2[nH]c4cc(OC)ccc4c32)S(C)(=O)=O)c1`: 0.954 ± 0.15; for `CCCC(=O)N1C[C@@]2(C1)CN([C@@H](CO)c1[nH]c3cc(OC)ccc3c21)C(=O)c1ccc(F)cc1`: 1.04 ± 0.072. Consider `CCCNC(=O)[C@H]1[C@H](CO)[C@H]2Cn3c(ccc(C4=CCCC4)c3=O)[C@H]2N1C(=O)c1cnccn1`, for which the viability index under setting [1] stood at 1.06 ± 0.05. The compound `COc1ccccc1NC(=O)N1C[C@@H](O)COC[C@H]2O[C@@H](CC(=O)N3CCC(Cc4ccccc4)CC3)CC[C@@H]21` gave a viability index under setting [1] of 1.065 ± 0.0029. For `CO[C@H](CN(C)CC1CCOCC1)[C@@H](C)CN(C(=O)Nc1ccc(F)cc1)[C@H](C)CO`, the viability index under setting [1] is 1.04 ± 0.052. As for `COc1ccc(S(=O)(=O)N(C)C[C@H]2OCCCC[C@H](C)Oc3ccc(NC(=O)Cc4ccccc4)cc3C(=O)N([C@H](C)CO)C[C@H]2C)cc1`, the viability index under setting [1] amounted to 0.9061 ± 0.001. `COc1ccc2c3c([C@H](CO)N(C[C@]33CCN(CC3)C(=O)Nc3c(C)noc3C)C(=O)Nc3ccc(F)cc3)n(C)c2c1` had a viability index under setting [1] of 1.06 ± 0.082. For `CCC(=O)N1C[C@H]2[C@@H](c3ccccc31)[C@@H](CO)N2C(=O)CC1CC1`, the viability index under setting [1] was 0.974 ± 0.11. Regarding `COc1ccccc1NC(=O)N1[C@@H](C#N)[C@@H](c2ccccc2)[C@@H]1CO`, the viability index under setting [1] was 1.01 ± 0.17. `C[C@H](CO)N1C[C@H](C)[C@H](CN(C)S(=O)(=O)c2ccc(C#N)cc2)OCc2ccccc2-c2c(n(C)c3ccccc23)C1=O` gave a viability index under setting [2] of 1.01 ± 0.03. `Cc1noc(C)c1NC(=O)N1C[C@H](O)COC[C@H]2O[C@H](CC(=O)N[C@@H]3CCN(Cc4ccccc4)C3)CC[C@@H]21` had a viability index under setting [1] of 0.974 ± 0.027. Consider `C/C=C/c1ccc([C@H]2[C@@H](CO)N(CC3CCCC3)[C@H]2CNS(C)(=O)=O)cc1`, for which the viability index under setting [1] stood at 1.03 ± 0.099. Regarding `CN1C(=O)c2cc(NC(=O)c3cscn3)ccc2OC[C@@H]2O[C@@H](CC(=O)N3CCOCC3)CC[C@@H]21`, the viability index under setting [1] was determined as 1.062 ± 0.0077.

Compound `CNC(=O)C[C@H]1CC[C@H]2[C@@H](COc3ccc(NC(=O)c4ccccc4F)cc3C(=O)N2C)O1` gave a viability index under setting [1] of 1.08 ± 0.095. Take `CCNC(=O)C[C@@H]1CC[C@@H]2[C@H](COC[C@@H](O)CN2C(=O)C2CCCC2)O1`: the viability index under setting [1] is 1.03 ± 0.034. Regarding `COc1ccc(S(=O)(=O)Nc2ccc3c(c2)C(=O)N([C@@H](C)CO)C[C@H](C)[C@H](CN(C)C(=O)Nc2c(C)noc2C)OCCCC[C@H](C)O3)cc1`, the viability index under setting [1] was determined as 1.04 ± 0.022.

In turn, `C[C@H]1CN([C@@H](C)CO)C(=O)c2ccccc2-c2ccccc2CO[C@H]1CN(C)C(=O)Nc1ccnc(N2CCOCC2)c1` displayed a viability index under setting [1] of 1.02 ± 0.036. `C/C=C/c1ccc2c(c1)[C@H]1[C@H](CCN1Cc1ccc(F)cc1)[C@H](CO)N2` gave a viability index under setting [1] of 1.08 ± 0.041. As to `CC(=O)N1CC[C@@H]2[C@@H](CO)Nc3ccc(-c4ccccc4)cc3[C@@H]21`, the viability index under setting [1] stood at 1.04 ± 0.063. As for `CO[C@@H]1CN(C)C(=O)c2cc(NC(=O)c3ccc(F)cc3)ccc2OC[C@@H](C)N(C(=O)CC2CC2)C[C@H]1C`, under setting [1], the viability index was determined as 1.07 ± 0.035. For `CN1c2ccc(-c3cccc(C#N)c3)cc2[C@H]2[C@H](CCN2C(=O)CN2CCOCC2)[C@H]1CO`, the viability index under setting [1] is 1.06 ± 0.076.

`O=C(c1cnccn1)N1CC(=O)N2[C@H](CO)[C@@H](c3ccc(-c4cccc(F)c4)cc3)[C@@H]2C1`: under setting [1], the viability index was 0.99 ± 0.047. In turn, `COc1ccc(S(=O)(=O)Nc2ccc3c(c2)CC(=O)N([C@@H](C)CO)C[C@@H](C)[C@@H](CN(C)C(=O)Nc2c(C)noc2C)O3)cc1` gave a viability index under setting [1] of 0.906 ± 0.067.

Under setting [1], `O=C(C[C@@H]1C[C@H]2c3cc(NC(=O)C4CCOCC4)ccc3O[C@H]2[C@@H](CO)O1)NCc1cccnc1` displayed a viability index of 1.06 ± 0.047. For the compound `CO[C@H](CN(C)CC1CCOCC1)[C@H](C)CN(C(=O)Nc1ccc(F)cc1)[C@H](C)CO`, the viability index under setting [1] turned out to be 0.993 ± 0.058. Turning to `COc1ccccc1C(=O)Nc1ccc2c(c1)C(=O)N(C)C[C@H](OC)[C@H](C)CN(C(C)=O)[C@H](C)CO2`, the viability index under setting [1] stood at 1.08 ± 0.017. Turning to `COc1cccc(-c2ccc3n(c2=O)C[C@H]2[C@H](CO)[C@@H](C(=O)NC4Cc5ccccc5C4)N[C@@H]32)c1`, the viability index under setting [1] is 1.12 ± 0.021.
